This is one part of the list. At the low end of the ranking the order means little.
These sequences were tested against GST-SBP-SLBP (stem-loop binding protein) (UniProt Q14493) (assay: targeted RNA Bind-n-Seq). Details: RBNS binding buffer: 25 mM Tris pH 7.5, 150 mM KCl, 3 mM MgCl2, 0.1% Tween, 0.5 mg/mL BSA, 1 mM DTT; 27 nM protein, 750 pM RNA pool; temperature not stated; high values mean tight binding.
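Further: DESeq read counts versus GST-SBP nonspecific binding control pulldown.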

Sequence | binding signal (log2 fold change)
GGUCACGUCUCAAUCAACUCUUCCUCCAGGGAAAGCCCUGGUAAUUUCAACAGCUCGCAGUCAAG | 0.0815
GGUCACGUCUCAAUCAACUCCCUAGAGGGGGGGAAAACCCCUUUGCCCUCGUUUUCAACAGCUCGCAGUCAAG | 0.0251
GGUCACGUCUCAAUCAACUCUAUUCCAGGAGUUUUCUCCUGUUUUGUCAACAGCUCGCAGUCAAG | -0.0833
GGUCACGUCUCAAUCAACUCAAUUUCAGGAGUUUACUCCUGCUAACUCAACAGCUCGCAGUCAAG | 0.0151
GGUCACGUCUCAAUCAACUCUAUCUCCAGGGAAAUCCCUGGUUUAUUCAACAGCUCGCAGUCAAG | -0.218
GGUCACGUCUCAAUCAACUCAUGUCCAGGAGUUUUCUCCUGUUAUCUCAACAGCUCGCAGUCAAG | -0.11
GGUCACGUCUCAAUCAACUCUUCUUCAGGAGUUUACUCCUGCAAAUUCAACAGCUCGCAGUCAAG | 0.105
GGUCACGUCUCAAUCAACUCAUCGUCCAGGGAAACCCCUGGUAAUUUCAACAGCUCGCAGUCAAG | -0.289
GGUCACGUCUCAAUCAACUCUAUAGAGGGGGGGAAAACCCCUUUACCCUCCGUUUCAACAGCUCGCAGUCAAG | 0.0749
GGUCACGUCUCAAUCAACUCUAUCUCCAGGGAAAACCCUGGUAUUUUCAACAGCUCGCAGUCAAG | 0.0844
GGUCACGUCUCAAUCAACUCAAUCCCAGGAGUUUUCUCCUGUUUACUCAACAGCUCGCAGUCAAG | 0.2
GGUCACGUCUCAAUCAACUCAUCGUCAGGAGUUUCCUCCUGUUUAUUCAACAGCUCGCAGUCAAG | -0.231
GGUCACGUCUCAAUCAACUCAUCCCCCAGGGAAAGCCCUGGCAUUCUCAACAGCUCGCAGUCAAG | -0.00359
GGUCACGUCUCAAUCAACUCAUAAGAGGGGGGGAAAACCCCUUUACCCUCCAACUCAACAGCUCGCAGUCAAG | 0.0729
GGUCACGUCUCAAUCAACUCAUCUUCCAGGGAAAGCCCUGGUUUACUCAACAGCUCGCAGUCAAG | 0.000628
GGUCACGUCUCAAUCAACUCAACUUCAGGAGUUUUCUCCUGUUUUUUCAACAGCUCGCAGUCAAG | -0.121
GGUCACGUCUCAAUCAACUCCUAAGAGGGGGGGAAAACCCCUUUGCCCUCACUAUCAACAGCUCGCAGUCAAG | -0.218
GGUCACGUCUCAAUCAACUCUAGUCCAGGAGUUUACUCCUGUUUUUUCAACAGCUCGCAGUCAAG | -0.279
GGUCACGUCUCAAUCAACUCUAUCUCAGGAGUUUCCUCCUGCAUAUUCAACAGCUCGCAGUCAAG | 0.0598
GGUCACGUCUCAAUCAACUCUUCUUCCAGGGAAAGCCCUGGUAUUUUCAACAGCUCGCAGUCAAG | -0.0795
GGUCACGUCUCAAUCAACUCAUCCCCAGGAGUUUUCUCCUGCUAACUCAACAGCUCGCAGUCAAG | 0.0368
GGUCACGUCUCAAUCAACUCAACUUCAGGAGUUUACUCCUGCUAACUCAACAGCUCGCAGUCAAG | 0.113
GGUCACGUCUCAAUCAACUCAUUAGAGGGGGGGAAAACCCCUUUGCCCUCAUACUCAACAGCUCGCAGUCAAG | 0.461
GGUCACGUCUCAAUCAACUCUUCUUCAGGAGUUUUCUCCUGCUUUUUCAACAGCUCGCAGUCAAG | -0.0966

Sequence | binding signal (log2 fold change)
GGUCACGUCUCAAUCAACUCGUUUUCAGGAGUUUCCUCCUGCUUUCUCAACAGCUCGCAGUCAAG | 0.0939
GGUCACGUCUCAAUCAACUCUACUUCAGGAGUUUUCUCCUGCAAUUUCAACAGCUCGCAGUCAAG | 0.0407
GGUCACGUCUCAAUCAACUCUUUCCCCAGGGAAAACCCUGGCUUUCUCAACAGCUCGCAGUCAAG | -0.463
GGUCACGUCUCAAUCAACUCCUUCGAGGGGGGGAAAACCCCUUUACCCUCUUUAUCAACAGCUCGCAGUCAAG | 0.0584
GGUCACGUCUCAAUCAACUCAAUAGAGGGGGGGAAAACCCCUUUACCCUCGUCAUCAACAGCUCGCAGUCAAG | -0.00109
GGUCACGUCUCAAUCAACUCUUUAGAGGGGGGGAAAACCCCUUUACCCUCGUCUUCAACAGCUCGCAGUCAAG | -0.0358
GGUCACGUCUCAAUCAACUCAUUUUCCAGGGAAAACCCUGGUAAUCUCAACAGCUCGCAGUCAAG | 0.124
GGUCACGUCUCAAUCAACUCAGUCCCCAGGGAAAACCCUGGCUUUUUCAACAGCUCGCAGUCAAG | -0.238
GGUCACGUCUCAAUCAACUCUUUUCCCAGGGAAAACCCUGGCUAUGUCAACAGCUCGCAGUCAAG | -0.00383
GGUCACGUCUCAAUCAACUCUACUCCCAGGGAAAGCCCUGGUUUAUUCAACAGCUCGCAGUCAAG | -0.196
GGUCACGUCUCAAUCAACUCUUUUUCCAGGGAAAGCCCUGGUUUACUCAACAGCUCGCAGUCAAG | 0.0963
GGUCACGUCUCAAUCAACUCAGUUCCCAGGGAAAACCCUGGCUUAUUCAACAGCUCGCAGUCAAG | -0.0221
GGUCACGUCUCAAUCAACUCAACUCCAGGAGUUUUCUCCUGCUAAUUCAACAGCUCGCAGUCAAG | 0.00114
GGUCACGUCUCAAUCAACUCUAUCUCCAGGGAAAGCCCUGGUUAAUUCAACAGCUCGCAGUCAAG | -0.0695
GGUCACGUCUCAAUCAACUCAUCUUCAGGAGUUUUCUCCUGCUAUGUCAACAGCUCGCAGUCAAG | 0.17
GGUCACGUCUCAAUCAACUCUUCGUCCAGGGAAAACCCUGGCUAAUUCAACAGCUCGCAGUCAAG | 0.0448
GGUCACGUCUCAAUCAACUCCUAAGAGGGGGGGAAAACCCCUUUGCCCUCAUCAUCAACAGCUCGCAGUCAAG | -0.174
GGUCACGUCUCAAUCAACUCCCAAAGGUUUUUUUAAGAGCCACCCAUCAACAGCUCGCAGUCAAG | 0.54
GGUCACGUCUCAAUCAACUCUAAAGAGGGGGGGAAAACCCCUUUACCCUCCAUGUCAACAGCUCGCAGUCAAG | -0.122
GGUCACGUCUCAAUCAACUCAUCUCCCAGGGAAAACCCUGGCUUAUUCAACAGCUCGCAGUCAAG | -0.232
GGUCACGUCUCAAUCAACUCUUUUCCCAGGGAAAGCCCUGGCUUAUUCAACAGCUCGCAGUCAAG | 0.153
GGUCACGUCUCAAUCAACUCAUUCCCAGGAGUUUUCUCCUGCAAACUCAACAGCUCGCAGUCAAG | 0.0145
GGUCACGUCUCAAUCAACUCCCACGAGGGGGGGAAAACCCCUUUACCCUCUUAAUCAACAGCUCGCAGUCAAG | 0.0141
